The other results are listed elsewhere or left out. At the low end of the ranking the order means little.

In this assay the target is T1, ETS1 (UniProt P14921).
T1 sequence: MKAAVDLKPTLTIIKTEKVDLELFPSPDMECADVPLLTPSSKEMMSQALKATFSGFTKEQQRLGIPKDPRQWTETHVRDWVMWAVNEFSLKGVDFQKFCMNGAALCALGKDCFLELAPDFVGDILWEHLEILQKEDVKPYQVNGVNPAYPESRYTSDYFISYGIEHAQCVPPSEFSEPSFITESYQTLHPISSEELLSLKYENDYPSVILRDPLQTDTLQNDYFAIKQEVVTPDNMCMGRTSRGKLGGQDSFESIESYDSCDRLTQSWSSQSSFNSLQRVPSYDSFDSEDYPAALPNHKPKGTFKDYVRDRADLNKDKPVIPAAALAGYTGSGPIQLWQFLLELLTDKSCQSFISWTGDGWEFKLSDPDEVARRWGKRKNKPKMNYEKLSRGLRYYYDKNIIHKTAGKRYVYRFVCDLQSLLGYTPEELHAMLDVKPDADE
Nature of the assay: custom PBM. The settings on record: custom protein-binding microarray; buffer, salt, pH and temperature not stated; high values mean tight binding; double strand, one strand shown.
With “TACTGAATTATATATGCGAATGCACATGAATAGACCGTCTTGATTCGCTTGACGCTGCTG”, the binding signal (log fluorescence intensity) was 8.08. Take “CTGGGACTTGACCCAACTCTGCCACGTGGTTCGTTTGTCTTGATTCGCTTGACGCTGCTG”: the binding signal (log fluorescence intensity) worked out at 8.29.

As to “CTGGGACTTGACCCAACTTTGCCACGTGGGTCGTTTGTCTTGATTCGCTTGACGCTGCTG”, the binding signal (log fluorescence intensity) turned out to be 8.36. For “TAAAGGGAAGACGGTTTTGGTAGTTCCGGGTATTAAGTCTTGATTCGCTTGACGCTGCTG”, the binding signal (log fluorescence intensity) was found to be 8.52. On to “CAGCATAGGACTTCTTCCCTGAAGCAATTGATAATCGTCTTGATTCGCTTGACGCTGCTG”, for which the binding signal (log fluorescence intensity) was determined as 8.23.

For the sequence “CAGCATAGGACTTCTTCCCTGAAGCAATTGATTACCGTCTTGATTCGCTTGACGCTGCTG”, the binding signal (log fluorescence intensity) was found to be 8.17.

Consider “CTGGGCCTTGACCCAACTCTGCCACGTGGGTCGTTTGTCTTGATTCGCTTGACGCTGCTG”, for which the binding signal (log fluorescence intensity) turned out to be 8.25. As for “GATTATTTTCTGCCCTTATTCGCACGTGCCATAACAGTCTTGATTCGCTTGACGCTGCTG”, the binding signal (log fluorescence intensity) was found to be 8.15. “CACTATTTTTACAGTAATGTAGCACGCGTAACTCCTGTCTTGATTCGCTTGACGCTGCTG”: the binding signal (log fluorescence intensity) stood at 8.06.

“CTGGGACTTGACCCAAATCTGCCACGTGGGTCGTTTGTCTTGATTCGCTTGACGCTGCTG”: the binding signal (log fluorescence intensity) amounted to 8.22.

Consider “TACTGACTTATATATGCGAATGCCCATGAATAGACCGTCTTGATTCGCTTGACGCTGCTG”, for which the binding signal (log fluorescence intensity) turned out to be 8.28. For the sequence “GCTGCTGCGGTGCATACCCCACCTGATGTGACCCCGGTCTTGATTCGCTTGACGCTGCTG”, the binding signal (log fluorescence intensity) was determined as 8.18.

With “TAAAGGGAAGACTGTTGTGGTAGTTCCGGGTATTAAGTCTTGATTCGCTTGACGCTGCTG”, the binding signal (log fluorescence intensity) amounted to 8.36. On to “CTGGGACTGGACCCAACTCTGCCACGTGGGTCGTTTGTCTTGATTCGCTTGACGCTGCTG”, for which the binding signal (log fluorescence intensity) was found to be 8.21.

Turning to “GATTAATTTCTGCCCTTATTCGCACGTGCCATAAAAGTCTTGATTCGCTTGACGCTGCTG”, the binding signal (log fluorescence intensity) came to 8.46. For the sequence “CTGGGACTTGACCCAACTCCGCCACGTGGGTCGTTTGTCTTGATTCGCTTGACGCTGCTG”, the binding signal (log fluorescence intensity) was found to be 8.19. With “GCTGCTGCGGTGCATACCCCACCGCATGTGACCCCGGTCTTGATTCGCTTGACGCTGCTG” the figure was 8.19; with “TACTGACTTATATTTGCGAATGCACATGAATAGACCGTCTTGATTCGCTTGACGCTGCTG”, 8.23; with “GCTGCTGCGGTGCATACGCCACCGGATGTGACCCCGGTCTTGATTCGCTTGACGCTGCTG”, 10.4. With “GTGTATAGGATCCCATGCAACACACGTGTTAAAATGGTCTTGATTCGCTTGACGCTGCTG”, the binding signal (log fluorescence intensity) was found to be 8.2. On to “GATTAATTTCTGCCCTTATTTGCACGTGCCATAACAGTCTTGATTCGCTTGACGCTGCTG”, for which the binding signal (log fluorescence intensity) stood at 8.21. With “GTGTATAGGATCCCCTCCAACACACGTGTTAAAATGGTCTTGATTCGCTTGACGCTGCTG” the figure was 8.2; with “TGTCGGGTAAGGGAATGTAGATCATGTGAATGAAAAGTCTTGATTCGCTTGACGCTGCTG”, 8.37. With “GATTAATTTCTGACCTTATTCGCACGTGCCATAACAGTCTTGATTCGCTTGACGCTGCTG”, the binding signal (log fluorescence intensity) was found to be 8.31. With “TGTCGGGTAAGGGAATGAAGATCACGTGAATGAAAAGTCTTGATTCGCTTGACGCTGCTG” the figure was 8.13. With “TCCGGCTACCAGCTCCACCCACTTGAGGCCTTGTAGGTCTTGATTCGCTTGACGCTGCTG” the figure was 8.24. For the sequence “TGTCGGGTAAGGGAATGTAGATCACGTGAATGAAATGTCTTGATTCGCTTGACGCTGCTG”, the binding signal (log fluorescence intensity) stood at 8.33. For “TACCGACTTATATATGCGAATGCACATGAATAGACCGTCTTGATTCGCTTGACGCTGCTG”, the binding signal (log fluorescence intensity) is 8.09. Then “CAGCAAAGGACTTCTTCCCTGAAGCAATTGATAACCGTCTTGATTCGCTTGACGCTGCTG”, with 8.31; and “TCCGGCTACCAGCTCCTCCCACTTCAGGCCTTGTAGGTCTTGATTCGCTTGACGCTGCTG”, with 8.25; and “CGGAAGTGTCGTAAACGTCGGATATCCGGTTTTTCTGTCTTGATTCGCTTGACGCTGCTG”, with 11.9. Regarding “GCTGCTGCGATGCATACCCCACCGGATGTGACCCCGGTCTTGATTCGCTTGACGCTGCTG”, the binding signal (log fluorescence intensity) is 9.95. In the case of “TGTCGGGTAAAGGAATGTAGATCACGTGAATGAAAAGTCTTGATTCGCTTGACGCTGCTG”, the binding signal (log fluorescence intensity) was determined as 8.3. Turning to “GGAAAAAGGCCCAGGGTAACACCGGTAGTGGGCTTAGTCTTGATTCGCTTGACGCTGCTG”, the binding signal (log fluorescence intensity) came out at 8.16.

As to “GATTAATTTCTGCGCTTATTCGCACGTGCCATAACAGTCTTGATTCGCTTGACGCTGCTG”, the binding signal (log fluorescence intensity) stood at 8.2.

“GGAAAAAGGCCCAGGGTAACACCGGAAGTGGGCTTAGTCTTGATTCGCTTGACGCTGCTG”: the binding signal (log fluorescence intensity) is 12. Consider “TACTGACTTAGATATGCGAATGCACATGAATAGACCGTCTTGATTCGCTTGACGCTGCTG”, for which the binding signal (log fluorescence intensity) was found to be 8.21. “CAGCATAGGACTTCTTCCCTGTAGCAATTGATAACCGTCTTGATTCGCTTGACGCTGCTG”: the binding signal (log fluorescence intensity) stood at 8.17. As to “TACTGACTTATATATGCGAATGCAAATGAATAGACCGTCTTGATTCGCTTGACGCTGCTG”, the binding signal (log fluorescence intensity) was 8.1. Take “CGGAAGTGTCGTAAACGTCGGTTATCCGGTTCTTCTGTCTTGATTCGCTTGACGCTGCTG”: the binding signal (log fluorescence intensity) was determined as 9.21. On to “AGGAAGTGTCGTAAACGTCGGATATCCGGTTCTTCTGTCTTGATTCGCTTGACGCTGCTG”, for which the binding signal (log fluorescence intensity) is 12. Consider “TACTGACTTATATATGCGAATGCACATGAGTAGACCGTCTTGATTCGCTTGACGCTGCTG”, for which the binding signal (log fluorescence intensity) is 8.14.

For the sequence “GGAAAAAGGCCCAGGGTCACACCGGAAGTGGGCTTAGTCTTGATTCGCTTGACGCTGCTG”, the binding signal (log fluorescence intensity) was 11.9. As for “CACAATTTTTACAGTAATGAAGCACGCGTAACTCCTGTCTTGATTCGCTTGACGCTGCTG”, the binding signal (log fluorescence intensity) was 8.24. In the case of “GCTGCTGCGGTTCATACCCCACCGGATGTGACCCCGGTCTTGATTCGCTTGACGCTGCTG”, the binding signal (log fluorescence intensity) worked out at 10.2. With “CTGGGATTTGACCCAACTCTGCCACGTGGGTCGTTTGTCTTGATTCGCTTGACGCTGCTG”, the binding signal (log fluorescence intensity) was 8.26.

Consider “TCCGGCTACCAGCTCCACCCAATTCAGGCCTTGTAGGTCTTGATTCGCTTGACGCTGCTG”, for which the binding signal (log fluorescence intensity) is 8.12. Consider “GGAAAAAGGCCCAGGGTGACACCGGAAGTGGGCTTAGTCTTGATTCGCTTGACGCTGCTG”, for which the binding signal (log fluorescence intensity) is 11.8. As to “TAAAGGGATGACGGTTGTGGTAGTTCCGGGTATTAAGTCTTGATTCGCTTGACGCTGCTG”, the binding signal (log fluorescence intensity) came out at 8.34. Take “TCCGGCTACCAGCTCCACACACTTCAGGCCTTGTAGGTCTTGATTCGCTTGACGCTGCTG”: the binding signal (log fluorescence intensity) amounted to 8.09. For “GGAAAAAGGCCCAGGGTAACACCGGAAGTGGGCTTCGTCTTGATTCGCTTGACGCTGCTG”, the binding signal (log fluorescence intensity) was determined as 12.1. As to “TGTCGGGTTAGGGAATGTAGATCACGTGAATGAAAAGTCTTGATTCGCTTGACGCTGCTG”, the binding signal (log fluorescence intensity) amounted to 8.1.

The values above are taken from PMC6602471.
